Some of the results follow.
T1: UNK ZnF1-3 (human, UniProt Q9C0B0 31-174)
T1 sequence: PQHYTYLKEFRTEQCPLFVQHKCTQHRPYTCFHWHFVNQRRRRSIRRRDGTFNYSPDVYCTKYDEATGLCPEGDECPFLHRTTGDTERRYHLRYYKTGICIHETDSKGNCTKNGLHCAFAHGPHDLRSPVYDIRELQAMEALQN

B1: 52134009_52137203_1859_CDS_ENSG00000112118_ENST00000229854|human|control|control (ssRNA)
RNA: GGGAGUUCUACAGUCCGACGAUCUGUAACUGGAGAUGUCCUGGCGGUGUCUGAGCUCAUGCUAUCCUGGCUGCGCAGGCGUGAAUACUCUUCUGCAAUGUAGGUGGCCGACUCCUGUGUCAGGACAGGCUUGAUGAUUUUGGCCAACAGAGGAUUGAGCAUCA
B2: 43050054_43058615_114_3pUTR_ENSMUSG00000036002_ENSMUST00000107956|mouse|control|control (ssRNA)
RNA: GGGAGUUCUACAGUCCGACGAUCGCAGCUUCUGGGCUCAGUUGGACCCUGUAGUUCCGUGGGUCCUGUUGCACUUGAGAAGGUAGUGGAUUGGGAUAGUGACUGAGCAGCCCUCCUUGCAGCCUGGGCCUGCAAACCUCUCCCCAACAGAGGAUUGAGCAUCA
B3: chr15:80415083:80415084:+_ENSG00000086666_ENST00000558494|hu_hu|motif|central (ssRNA)
RNA: GGGAGUUCUACAGUCCGACGAUCAUCUUCUGUUUCAGGUACUGCUUUGUCCACAGAUGUACUGUCCAAUUGAGAAGAUGCGGCAGAUUCUGAUAAAAGUGACUGAUUUGAUACAGGGCUGGGCUGCAUAGAUGAAGAUGUAGACAACAGAGGAUUGAGCAUCA
B4: 60977291_60980254_566_CDS_ENSMUSG00000042506_ENSMUST00000041683|mouse|control|control (ssRNA)
RNA: GGGAGUUCUACAGUCCGACGAUCUUUAGUUGGUUCCCAAGUUGAAAACUUCUCUCCAACACCUUGCAUCUUCCAAGCCUUGCGCUGCUCCUCUUUGGCAAUGAUUUCUAUGUCUUUGUCAUAGAUGUAGUCCUGACACAAGAACAACAGAGGAUUGAGCAUCA
B5: 121704358_121709814_988_5pUTR_ENSMUSG00000042744_ENSMUST00000119892|mouse|control|control (ssRNA)
RNA: GGGAGUUCUACAGUCCGACGAUCCCUAUAUAAAACAUCGGCGACAGGCAGGGAGCCCAGCUCAGUCUGUCUCUGCAGCAGGUGAACUGUGUGGACAAAGGUCUUCAGUGACCCCCUGGCACACGCCAAAGCCACCAGGGCAGCCAACAGAGGAUUGAGCAUCA
B6: chr11:29999966:29999967:-_ENSMUSG00000020315_ENSMUST00000011877|mus_hu|FALSE|FALSE (ssRNA)
RNA: GGGAGUUCUACAGUCCGACGAUCCAUGUCGUGUGUUAGUAAGUGAUGCCAGAUACAAAUGGUUUGGUCUGUAGAGUUAAUGUGGAGCUGCACUGUGGCUGCAGCAAGAUCAUAAUAUGCGAUCUGUUUAAUAAAGGUUAGCCCCAACAGAGGAUUGAGCAUCA
B7: chr6:42301883:42301884:+_ENSMUSG00000029860_ENSMUST00000070635|mus_hu|FALSE|FALSE (ssRNA)
RNA: GGGAGUUCUACAGUCCGACGAUCCACGGGGUGCUGCUUCUCCUGCACUCGGGGCUUCUCCCUCUGCUGGGCAUAGGUGAAGCUGGGAGGUUGAGGGGAGCCUGUGCCAGCAGAAAGAGCUUCGGGGUGCCCCAAUUUUUGAUUCAACAGAGGAUUGAGCAUCA
B8: chr11:6247107:6247108:+_ENSMUSG00000020456_ENSMUST00000003461|mus_hu|FALSE|FALSE (ssRNA)
RNA: GGGAGUUCUACAGUCCGACGAUCGAACAUGGGCUCAUCCAUCUCGUUGUGGCCGUUGCGCCGGUAACACACCAAAUCGACAACCACGUCCUUGUGGAAGGUGCUCCUCCACUCGGCCGCCACUUUGCACACGUACAUGACAGCCAACAGAGGAUUGAGCAUCA
B9: chr11:34129765:34129766:+_ENSG00000135372_ENST00000257829|hu_mus|motif|central (ssRNA)
RNA: GGGAGUUCUACAGUCCGACGAUCCCAUUCUCAAUGAGAAUUCGAAUUCGGUUAUCCACCUUCUUCCGAUUCAUGAUGAAAAGCGGUCACUGCGCCCUGCUCCGGCCGACACCAGGCAGCUGCACAACGGAAGCACGUGAAGACCAACAGAGGAUUGAGCAUCA
B10: chr7:140404665:140404666:+_ENSG00000090266_ENST00000247866|hu_hu|hu_hu_hu_mus_False|18_58 (ssRNA)
RNA: GGGAGUUCUACAGUCCGACGAUCUGCUCCUACUCGUCCAGAGAGUUUACAGUGUCAGUCCUCGUCAUCAGGAGGGAUACCUAAUUCUUCAUCUGUCCACUGUGAAGGAUCUGGAUACGGAAAGUGACCCAGCACAGCAUCCGACAACAGAGGAUUGAGCAUCA
B11: chr4:140556289:140556290:+_ENSMUSG00000036622_ENSMUST00000037055|mus_mus|mus_mus_mus_hu_False|1_18 (ssRNA)
RNA: GGGAGUUCUACAGUCCGACGAUCGAUGGAGCUCACCAGGCCCCCUUUUGCCGUGCAGAACCCUGUGCGGGUCACCACUGCCAGGACGUGCGGUCCCACAUAGGCCCGGGCCUGCAAAAUGAGGGUGCCGCAGAAGAGGGUGUGCAACAGAGGAUUGAGCAUCA
B12: 22330225_22334248_969_3pUTR_ENSG00000058600_ENST00000564750|human|control|control (ssRNA)
RNA: GGGAGUUCUACAGUCCGACGAUCAAGUCUCGGCCCCUGCAGAGCACCUCAGCAGGCACGCCGCUGUGAGGGCUGGACGAGUCCUUGGGGUAUAGGAUGUCACUCUUCACCACCCAGUUCCCUUGGACCAACAUCGCCACCUUCCAACAGAGGAUUGAGCAUCA
B13: chr10:7519382:7519383:+_ENSMUSG00000015757_ENSMUST00000015901|mus_mus|FALSE|FALSE (ssRNA)
RNA: GGGAGUUCUACAGUCCGACGAUCAGGCUCGGGUGAUCGAUCAGGAAUUAAUAAAUCAGGAGGGUCAUCAAAUGGAUCAUCUAAAAUCACUGUAUGAUUUAUCCUUAUAUCUUGAUAUGGUACAAAAUCCUUGUCCACAAAGGUCAACAGAGGAUUGAGCAUCA
B14: chr10:106022761:106022762:+_ENSG00000148834_ENST00000369713|hu_hu|FALSE|FALSE (ssRNA)
RNA: GGGAGUUCUACAGUCCGACGAUCAAAUUCUUUACGAAAUUCUUCUUUUAGGCCAGCAUAGUCUUCUUUAUUUUGGCUUCUAAUAAAGCUUCCUACCAAGGAUGGCACCUUAGAAAACAACUCUAAGAUCAUCUUCUGGCAAGCCAACAGAGGAUUGAGCAUCA
B15: chr10:33190432:33190433:-_ENSG00000150093_ENST00000302278|hu_mus|hu_hu_hu_mus_True|1_68 (ssRNA)
RNA: GGGAGUUCUACAGUCCGACGAUCUACAUUUUCCAAACCUGCAUGUGAAUAAAACCCUGGCCACAGAGCCCUAAAGCUACCCUACUGUGACUAAGAUGCUGCUGCUGUGAGCUUGGUGUUGCAAAAUCCGCCUGAGUCAGUACUCAACAGAGGAUUGAGCAUCA
B16: chr7:151048522:151048523:+_ENSG00000013374_ENST00000566856|hu_mus|hu_hu_hu_mus_True|8_18 (ssRNA)
RNA: GGGAGUUCUACAGUCCGACGAUCCUGUUUCUUAUUUAUUACGAUCUUGAUGUAAUUUUCUUGAAAUCCGAAAGUUUCAGCUAUUUGACACCUCAGGUCUCUACCAGUGACAUGCAAUCGGGUCUCCAACAAGUUUUUCUUAUCCAACAGAGGAUUGAGCAUCA
B17: chr1:41461666:41461667:+_ENSG00000171793_ENST00000372621|hu_mus|FALSE|FALSE (ssRNA)
RNA: GGGAGUUCUACAGUCCGACGAUCCCAUUUCAUCAGCAUCUUUCGUGACUGUCUCUCAAUAGGAAGGUCAAGUCUCCGAAGAAAGUAGUCUACAACCCCUUGCUCUUCUAACAACAAGGGUACCCGGUAGAUGGAUGAAACAUCCAACAGAGGAUUGAGCAUCA
B18: chr17:38574076:38574077:-_ENSG00000131747_ENST00000423485|hu_hu|FALSE|FALSE (ssRNA)
RNA: GGGAGUUCUACAGUCCGACGAUCAAUGGUGACACUUCCAUGGUGACGGUCGUGAAGGGGCUCAAGAACCCUGAAAGCGACUAAACAGGCAGGACCCCACGAGACCACCCCCGACCAAGCCGCUUCUCCACAGACGCGCGUCGGCAACAGAGGAUUGAGCAUCA
B19: chr6:41757443:41757444:+_ENSG00000214736_ENST00000398881|hu_mus|hu_hu_hu_mus_False|18_38 (ssRNA)
RNA: GGGAGUUCUACAGUCCGACGAUCGAACCGUGCAGAGGCAACAUCUCAGCCGACACUGGGGGAUGGGGGGGCAGUGGGGGGGGGUUCAGGCAAGGAGAAGAAAAGUGCUUCAGCUGCUCAAACUUCAGGAUCUUGUGGUCACAGCAACAGAGGAUUGAGCAUCA
B20: chr2:32088997:32088998:+_ENSMUSG00000039262_ENSMUST00000036691|mus_mus|motif|central (ssRNA)
RNA: GGGAGUUCUACAGUCCGACGAUCUCCCCCUUAAGGAAGCUUAGACCCAGAAGUGUUCUGUGAACUCUGAAUUUGAAAAUGCGGAACUUGGGAAUCAGACAAGGAAAGCAACUGUUAAGAGACCAGACUAAAUGCAGUCGGCAGCAACAGAGGAUUGAGCAUCA
B21: chrX:102931600:102931601:-_ENSG00000123562_ENST00000441076|hu_hu|motif|central (ssRNA)
RNA: GGGAGUUCUACAGUCCGACGAUCGUCCUCAACAAGCCAUGGUUUUAAUUCUUCAGGAAUCUUCACUUUAACCUCCAUUCGGUUCUUAAACGCCUCCUCACUUUCAACAGUGGGGUCUGCCCGGGCCCUUUUCUUCCGAGGGGGCAACAGAGGAUUGAGCAUCA
B22: chr4:99962207:99962208:+_ENSG00000164024_ENST00000296411|hu_hu|motif|central (ssRNA)
RNA: GGGAGUUCUACAGUCCGACGAUCGCCGGCAGCAACAUCCAAAACUUCUCUAGCAAGCCUACAUACAAGUCGCAUCCCUUCGGUAUCUUCAGAUGAGAGUAAUUUAAUCUGAGAAGUACCUUUAAGAGCCUGUUCAGAUUCAGACAACAGAGGAUUGAGCAUCA

target: T1, UNK ZnF1-3; assay: nsRBNS (natural sequence RNA bind-n-seq); RBNS binding buffer (assumed for nsRBNS): 25 mM Tris pH 7.5, 150 mM KCl, 3 mM MgCl2, 0.01% Triton X-100, 500 ug/ml BSA, 20 U/ml SUPERase-In, 4 C; UNK is unkempt and MSI1 is Musashi-1; names of the RNAs are library labels; protein concentration not given here; high values mean tight binding

| Binder | binding signal [enrichment R] |
| --- | --- |
| B1 | 0.523 |
| B2 | 0.927 |
| B3 | 1.12 |
| B4 | 0.563 |
| B5 | 0.438 |
| B6 | 1.6 |
| B7 | 1.1 |
| B8 | 0.561 |
| B9 | 1.44 |
| B10 | 1.13 |
| B11 | 0.349 |
| B12 | 0.641 |
| B13 | 0.846 |
| B14 | 0.922 |
| B15 | 0.908 |
| B16 | 0.485 |
| B17 | 0.668 |
| B18 | 0.72 |
| B19 | 1.37 |
| B20 | 1.6 |
| B21 | 1.13 |
| B22 | 1.93 |
